Experimental data: PubChem BioAssay AID1508624 (National Center for Advancing Translational Sciences (NCATS), 2021)
Hit rate of the full screen: of about 48,000 compounds, about 120 (0.25%) were called active. Inconclusive results (about 4%) are left out. The call rests on the fitted dose curve; in most records, active means well fitted activation curve with a large enough effect; inconclusive means small, poorly fitted or top-dose-only effect, or another doubt; inactive means no such curve, though single readings can be large or run the other way. The list shows a part of the results.

Experiment: Primary qHTS for Identification of Small Molecule Activators of Huntingtin-Antisense Promoter Activity; further: nearly all actives have a fitted effect of over 55% in size
Conditions: HEK293 HTT-AS promoter firefly luciferase reporter, 24 h; series mostly up to 57.5 µM; activity change, positive = activation: at the top concentration
Outline: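 HEK293 Fluc reporter, 2,500 cells/well, 24 h pre-culture; cpds up to 57.5 uM final, 24 h 37 degrees C; Dual-Glo, 10 min RT; normalized vehicle = 0%, zero RLU = -100%.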

Activity change, positive = activation, inactive:
O=C(NC1CC1)c1ccc(Cn2c(SCc3ccc(F)cc3)nc3cccnc32)cc1 9.88%
COc1ccc(-c2cc(C(F)(F)F)nc(SCCC(=O)Nc3cccc(OC)c3)n2)cc1 -26.2%
COc1ccccc1N1CCN(S(=O)(=O)CCNC(=O)COc2ccccc2F)CC1 -13.4%
CC(=O)OCC(=O)[C@@]12N=C(C)O[C@H]1C[C@H]1[C@@H]3CCC4=CC(=O)C=C[C@]4(C)[C@@H]3[C@@H](O)C[C@@]12C -93.3%
O=C(CCCn1c(=O)c2sccc2n(Cc2ccc(Cl)cc2)c1=O)NCc1ccc2c(c1)OCO2 -23.6%
N#CC(=C1Nc2ccccc2S1)c1ccnc(OCc2ccc(CN3CCOCC3)cc2)n1 -45.7%
CCOC(=O)c1ccccc1NC(=O)c1cc2c(s1)-c1ccccc1SC2 -25.2%
CC1=C(c2ccc(Cl)cc2)S(=O)(=O)N=C1N1CCC(C(=O)NCCc2ccco2)CC1 -16.8%
COc1ccc(Br)cc1CNC(=O)CCc1cn(Cc2ccc(C)cc2)c2ccccc12 -18.7%
Cc1scc(CN2CCN(c3ccc(F)cc3)CC2)c1C -5.87%
COC(=O)c1sccc1S(=O)(=O)N1CCN(c2ccc(Cl)cc2)CC1 -29.3%
CC(C)c1ccc(NC(=O)CN2C(=O)CSc3ccc(S(=O)(=O)N4CCCC4)cc32)cc1 -19.5%
CC(C)CC(NC(=O)C1CCCCC1)C(=O)Nc1cccc(C(F)(F)F)c1 (stereo not drawn) -7.68%
Cc1ccc(NC(=O)c2sc3nc(-c4ccncc4)ccc3c2N)cc1 26.6%
Cc1ccc(CNC(=O)CCc2nnc3n(C)c(=O)c4sccc4n23)cc1 -21.9%
CCOc1ccc(S(=O)(=O)c2c(C(=O)c3ccc(C)c(C)c3)cnc3ccccc23)cc1 -10.6%
COc1cc(NC(=O)C(NS(=O)(=O)c2ccc3c(c2)CCCC(=O)N3)C(C)C)cc(OC)c1 (stereo not drawn) -2.15%
CC(=O)Nc1ccc(Nc2c(CCC(C)C)c(C)c(C#N)c3nc4ccccc4n23)cc1 4.38% [at 11.5 µM, percent change from vehicle, -100% = no light]
CC(=O)N[C@@H](CC(C)C)C(=O)O -2.22%
Cc1ccccc1C(=O)Nc1nnc(S(=O)(=O)N(C)c2ccc(Cl)cc2)s1 -39%
COC(=O)c1sccc1S(=O)(=O)N(CC(=O)Nc1ccc(C)c(F)c1)c1ccc(C)c(C)c1 -35.1%
Cc1ccccc1Cn1c(=O)n(CCc2ccccc2)c(=O)c2sc3ccccc3c21 27.4%
O=C(COc1ccc(F)cc1)Nc1ccc(S(=O)(=O)N(Cc2ccccc2)c2ccccc2)cc1 4.08%
CCc1ccc(CNC(=O)c2sc3nc[nH]c(=O)c3c2C)cc1 -7.88%
COc1ccc(-c2cc(C(C)=O)c(C)n2CCC(=O)Nc2ccc(C)c(Cl)c2)cc1 -34.3%
CCCNc1ncnc2c1c(-c1ccccc1)cn2-c1ccc(OCC)cc1 -13.2%
O=c1cc(CSc2ccccc2)[nH]c2ccc(F)cc12 -33.9%
COc1ccc(NC(=O)CCn2c(-c3ccc(F)cc3)cc(C(C)=O)c2C)c(OC)c1 -18.6%
Cc1ccc(NC(=O)c2c(C)oc3ccc(O)c(CN(C)Cc4ccccc4)c23)c(C)c1 -24.6%
CCc1ccc(Nc2nnc(-c3cc4cc(OC)ccc4oc3=O)s2)cc1 -12.9%
COc1ccc(OC)c(CNc2ncnc3c2nc2n3CCCC2)c1 -19.7%
CCN(C(=O)Cc1c(C(=O)O)c(C)cn1C)c1cccc(Cl)c1 -11%
CCc1c(C)nc(SCc2nc(-c3ccccc3C)no2)[nH]c1=O -38.5%
Cc1nc(N2CCCC2)ncc1C(=O)NCc1ccc(F)cc1 -3.68%
Cc1cn2c(=O)c(S(=O)(=O)Nc3ccc(N4CCOCC4)cc3)c(C)nc2s1 -7.23%
COCCNC(=O)c1cnn(-c2cccc(C)c2)c1-n1cccc1 4.4%
COc1cc2ncc3c(-c4ccccc4)nn(CC(=O)NC4CCCCC4)c3c2cc1OC -15.7%
CC1CCN(S(=O)(=O)c2cc(C(=O)NCc3ccccc3)n(C)c2)CC1 -14.6%
COc1ccc(C2=C(C)C(N3CCN(c4ccc(OC)cc4)CC3)=NS2(=O)=O)cc1 -13.9%
CN(C(=O)c1ccc2c(c1)N(Cc1ccc(F)cc1)C(=O)c1ccccc1S2(=O)=O)C1CCCCC1 -28.9%
COc1ccc(C(=O)NNc2ncnc3c2cnn3-c2ccc(C)cc2C)cc1 -15.3%
CCC(CC)C(=O)Nc1nnc(S(=O)(=O)N2c3ccccc3CC2C)s1 (stereo not drawn) -28.2%
CCOCCCn1c(=N)c(C(=O)NC(C)c2ccccc2)cc2c(=O)n3cccc(C)c3nc21 (stereo not drawn) -30.3%
Cc1cc(N2CCC(C(=O)Nc3ccccc3Cl)CC2)n2nc(C)c(-c3ccc(Cl)cc3)c2n1 -11.7%
Fc1cccc(-c2nnn3c2nc(NCc2ccc4c(c2)OCO4)c2ccccc23)c1 -1.35%
Cc1ccc2occ(CC(=O)Nc3ccc(Cl)c(C(F)(F)F)c3)c2c1 -84.4%
CCc1ccc(C(=O)NC2=NC(c3cc(OC)ccc3OC)CC(=O)N2)cc1 (stereo not drawn) -5.06%
CC(=O)Nc1ccc(NC(=O)C(c2ccccc2)N2Cc3ccccc3C2=O)cc1 (stereo not drawn) -4.28%
Cc1ccc(-c2nn(C)c(=O)c3ccccc23)cc1S(=O)(=O)NCCCN(C)C -5.27%
COC(=O)c1ccc(-c2nc(-c3ccc(OC)c(OC)c3)no2)cc1 15.9%
O=C(Nc1ccc(-c2nc3cc(NC(=O)c4ccc(Cl)cc4)ccc3o2)cc1)c1ccc(Cl)cc1 4.39%
COc1ccc(-c2cc(C(F)(F)F)n3nc(C(=O)Nc4sc5c(c4C(=O)OC(C)C)CCC(C)C5)cc3n2)cc1 (stereo not drawn) 1.63%
CCCN(CCC)C(=O)C1CCCN(S(=O)(=O)c2cc(Br)cc3c2N(C(=O)CC)CC3)C1 (stereo not drawn) -15.8%
CCc1ccc(-n2nc(CO)c(C(=O)NCc3cccnc3)n2)cc1 -7.8%
O=C(c1ccc2c(c1)N(Cc1ccc(Cl)cc1)C(=O)c1ccccc1S2(=O)=O)N1CCN(Cc2ccccc2)CC1 -37%
Cc1cc(C)cc(NC(=O)CCc2c(C)nc3c(c2C)c(=O)n(C)c(=O)n3C)c1 -3.12%
O=S(=O)(c1ccc(Br)cc1)c1nnn2c1nc(NCCc1ccccc1)c1sccc12 -7.62%
Cc1nc2ccc(S(=O)(=O)NC(C(=O)N3CCN(c4cccc(Cl)c4)CC3)C(C)C)cc2s1 (stereo not drawn) -17%
COc1ccc(N2C(=O)CCSC23C(=O)N(Cc2ccc(F)cc2)c2ccccc23)cc1 (stereo not drawn) -37.3%
Cc1ccc(-c2onc(C)c2C)cc1S(=O)(=O)Nc1cccc(Cl)c1C -48.1%
CCOc1ccc(NC(=O)C2CCN(S(=O)(=O)c3c(C)noc3/C=C/c3ccco3)CC2)cc1 -13.9%
CC(C)CC(=O)Nc1n[nH]c2c1CN(C(=O)C1CCN(C)CC1)C2(C)C -47.5%
CCOC(=O)c1ccccc1NC(=O)N1CC(C)Oc2ccc(C)cc21 (stereo not drawn) -34.5%
CCOc1ccc(NC(=O)CCn2cccn2)cc1 15.3%
CCCCOC(=O)/C(C#N)=C\c1ccc(-c2ccc(Cl)cc2)o1 -1.25%
CC(=O)c1ccc(C(=O)N(Cc2cccnc2)c2nc3c(C)c(C)ccc3s2)cc1 -31.4%
CCOC(=O)N1CCN(C(=O)c2ccc3c(c2)N(Cc2cccc(Cl)c2)C(=O)c2ccccc2S3=O)CC1 (stereo not drawn) -32.8%
Cc1ccc(-c2nc3ccccn3c2Nc2ccc3c(c2)OCCO3)o1 5.12%
O=C1CN(C(=O)COc2ccc(Cl)cc2)C(c2ccc(F)cc2)c2cc(Cl)ccc2N1 (stereo not drawn) -20.6%
O=C(Nc1ccc(Br)cc1)C1CCN(c2ncccn2)CC1 1.12%
COc1cc(NC(=O)C(=O)Nc2ccc3nc4n(c(=O)c3c2)CCCCC4)cc(OC)c1OC -16.6%
CCOC(=O)Cn1c(=O)oc2cc(S(=O)(=O)NC(C)c3ccccc3)ccc21 (stereo not drawn) -16.4%
COC(=O)c1nc2n(n1)C(c1cc(OC)ccc1OC)C=C(c1ccc(Br)cc1)N2 (stereo not drawn) -39.5%
O=C(NCCS(=O)(=O)c1ccc(C(F)(F)F)cn1)c1ccc(Cl)cc1 -5.5%
O=C(c1ccccc1F)N1c2nc(-c3ccco3)nn2C2(CCCCC2)[C@@H]2CCCC[C@@H]21 -37.6%
COc1ccccc1CNC(=O)c1ccc(-n2c(C)cc3c2CCCC3)cc1 2.69%
Cc1c(Cl)cccc1NS(=O)(=O)c1ccc(NS(=O)(=O)c2ccc3c(c2)OCCO3)cc1 -33.9%
COc1ccc(Cl)cc1NC(=O)c1cnc(N2CCCCC2)c2ccccc12 -20.7%
CCOC(=O)c1c(C)[nH]c(C)c1S(=O)(=O)N1CCCC(C(=O)NCc2cccc(OC)c2)C1 (stereo not drawn) -3.91%
COc1cc(CNC(=O)CCCCC=CC(C)C)ccc1O -11.5%
Cc1cc(C(=O)N2CCN(c3cccc(C)c3C)CC2)c2c(C)nn(-c3ccccc3)c2n1 -17.6%
CCOC(=O)c1sc(NC(=O)C2c3ccccc3Oc3ccccc32)c(C#N)c1C -35.2%
COc1cccc(-c2ccc3c(N)c(C(=O)Nc4cc(C(F)(F)F)ccc4OC)sc3n2)c1 3.66%
Cc1ccc(C(=O)c2cn(CC(=O)NCc3ccccc3Cl)c3nc(C)ccc3c2=O)cc1 -8.12%
CCCC(=O)NC(C)c1nc2ccccc2n1Cc1ccccc1 (stereo not drawn) -7.2%
COc1ccc(S(=O)(=O)N2CCCN(CC(=O)Nc3ccc(OC)cc3OC)CC2)cc1 -11.5%
COc1ccccc1CNC(=O)CCC1N=C2c3ccccc3N=C(SCC(=O)Nc3ccc(N(C)C)cc3)N2C1=O (stereo not drawn) 12.7%
Cc1c(C(=O)N(C)C)sc2c1c(=O)n(-c1ccc(Cl)cc1)c(=O)n2Cc1ccccc1F -16%
Cc1cccc(OCC(=O)Nc2cc(-c3ccccc3F)nn2-c2ccccc2)c1 6.92%
CC(C)NC(=O)N1CCN(S(=O)(=O)c2ccc3c(ccn3C)c2)CC1 -28.9%
Cc1ccc(C)c(NC(=O)CN(C)S(=O)(=O)c2ccc3c(c2)CCC(=O)N3)c1 -5.51%
CCOC(=O)c1cc(-c2ccc(OC)cc2)n(CCC(=O)NCc2ccc(OC)cc2)c1C -27.5%
OCc1ccccc1O[C@@H]1O[C@H](CO)[C@H](O)[C@H](O)[C@H]1O -5.6%
